The campaign covered roughly 110,000 compounds. About 230 (0.21%) showed an effect of 50% or more. The list shows a part of the results.
These compounds were tested against DPAP1 (Plasmodium falciparum, UniProt Q8IIJ9) (assay: primary screen, percent inhibition; read by cleavage of a fluorogenic dipeptide substrate; higher = more effect of the substance).
Set-up: species or system P. falciparum D10 trophozoite lysates; single well
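Note: 30 min substrate incubation versus DMSO and 10 µM JCP410 controls.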

Chain of DPAP1 (Q8IIJ9 whole entry, looked up): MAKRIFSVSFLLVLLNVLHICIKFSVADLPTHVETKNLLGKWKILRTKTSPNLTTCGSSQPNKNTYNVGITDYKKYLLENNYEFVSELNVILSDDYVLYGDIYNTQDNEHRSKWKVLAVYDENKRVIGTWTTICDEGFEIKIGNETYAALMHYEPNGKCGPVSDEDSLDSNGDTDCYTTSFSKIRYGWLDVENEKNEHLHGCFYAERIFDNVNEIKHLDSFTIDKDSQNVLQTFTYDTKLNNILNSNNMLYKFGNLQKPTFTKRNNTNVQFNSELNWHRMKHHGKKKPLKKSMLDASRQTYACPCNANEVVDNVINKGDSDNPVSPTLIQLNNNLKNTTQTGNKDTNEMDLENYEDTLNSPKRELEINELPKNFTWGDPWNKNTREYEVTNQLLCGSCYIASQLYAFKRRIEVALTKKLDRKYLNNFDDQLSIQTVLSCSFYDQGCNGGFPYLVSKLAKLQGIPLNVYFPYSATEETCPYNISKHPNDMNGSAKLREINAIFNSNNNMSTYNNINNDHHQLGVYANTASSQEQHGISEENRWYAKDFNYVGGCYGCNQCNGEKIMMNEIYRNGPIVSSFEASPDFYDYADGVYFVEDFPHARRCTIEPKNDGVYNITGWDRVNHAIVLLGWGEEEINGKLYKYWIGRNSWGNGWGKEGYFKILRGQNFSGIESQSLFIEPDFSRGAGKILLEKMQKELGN

Compound	% Inhibition @ 10 uM [%]
CCN1C(=O)NC(c2ccccc2Cl)C(C(=O)OC2CCCCC2)=C1C (centres unmarked)	-2.6
c1cnc(N2CCN(c3ncnc4c3nc3n4CCCCC3)CC2)nc1	1.51
Cc1cccc(C(=O)N(Cc2ccco2)C2CCS(=O)(=O)C2)c1 (centres unmarked)	0.569
O=C(Nc1ccc(F)cc1F)c1cccc([N+](=O)[O-])c1	-1.48
Cc1c(C(=O)NC2CCCc3ccccc32)sc2nc3n(c(=O)c12)CCCCC3 (centres unmarked)	5.82
Cc1nnn(C23CC4CC(CC(C(=O)N5CCN(c6ccccn6)CC5)(C4)C2)C3)n1	1.49
COc1ccc(/C=C(/NC(=O)c2ccccc2)C(=O)NCc2ccccc2)cc1	-3.26
COc1ccccc1N/C=C1/C(=O)NC(=O)N(c2ccccc2)C1=O	-1.22
Cc1ccc(CN(C)Cc2ccccc2)o1	1.62
O=c1c(CN2CCN(c3ccc(F)cc3)CC2)coc2ccc(Cl)cc12	-1.42
CCCOc1ccc(N2CC(C(=O)Nc3ccc(N4CCOCC4)cc3)CC2=O)cc1 (centres unmarked)	-5.35
CCCCOc1ccc(C(=O)Nc2ccc(N3CCN(C(=O)c4ccco4)CC3)cc2)cc1	-4.12
COc1ccc(OC)c(C2CC(=O)N3C(=C2C#N)SCC3(O)c2ccc(OC)c(OC)c2)c1 (centres unmarked)	-1.74
Cc1[nH]c(-c2ccc(F)cc2)cc1C(=O)NCCCN1CCN(C2CCCCC2)CC1	-1.87
O=C(NCCCn1ccnc1)C1CC(c2cccc(Br)c2)=NO1 (centres unmarked)	1.91
Cc1cc(-c2nc(-c3ccc(C(F)(F)F)cc3)no2)c2ccccc2n1	3.68
COC(=O)c1ccc(C(=O)Nc2nc3c(s2)CCc2ccccc2-3)cc1	17.1
CC1CCCN(C(=O)c2cc(-c3ccccc3)[nH]n2)C1 (centres unmarked)	1.24
C=CCSC1=C(C#N)C(c2ccccc2OC)CC(=O)N1 (centres unmarked)	-8.36
CCOC(=O)c1c(NS(=O)(=O)c2ccc([N+](=O)[O-])cc2)sc2c1CCCC2	-6.99
CCC(=O)n1nc(-c2cccnc2)nc1NCc1ccc(OC)cc1	-6.64

Compound	% Inhibition @ 10 uM [%]
O=C1C(=O)N(Cc2ccccc2Cl)c2ccccc21	-0.366
COCCN1C(=O)C(O)=C(C(=O)c2ccc(OC)cc2C)C1c1ccccc1 (centres unmarked)	5.14
COc1ccc(NC2=C(Cl)C(=O)N(c3ccccc3C)C2=O)cc1	-4.6
Cc1cccc(C)c1NC(=O)C1(NC(=O)CN2C(=O)c3ccccc3C2=O)CCCC1	-4.02
CC(=O)c1ccc(NC(=O)c2ccc(Cl)cc2)cc1	-5.28
Cc1ccc2nc(O)c(CN(C)C(=O)c3cccc(Cl)c3)cc2c1	5.7
CCN1CCC(N2CCC(O)(c3ccc(Br)cc3)CC2)CC1	1.57
O=C(CCc1ccccc1)ON=C1CCC(c2ccccc2)CC1 (centres unmarked)	1.13
CCOc1ccc(CCNC(=O)C2CCN(c3nn4c(=O)cc(C)nc4s3)CC2)cc1	3
CC(C)C(=O)n1nc(-c2ccc(Cl)cc2)nc1NCc1ccco1	0.628
Cc1cc(Cl)ccc1OCCSc1nc(-c2ccccc2)nc2cc(=O)[nH]n12	-3.22
Fc1ccccc1N1CCN(Cc2ccccc2Br)CC1	-2.56
Cc1csc2ncc(C(=O)NCc3cccs3)c(=O)n12	-0.499
N#CCNC(=O)C(CC1CCCCC1)C(=O)NCc1cccc2ccccc12 (centres unmarked)	-1.83
Cc1noc(/C=C/N2CCOCC2)c1S(=O)(=O)N(C)CCc1ccc(Cl)cc1	10.3
C[C@@H](O)[C@@H](NC(=O)OCc1ccccc1)C(=O)NCC#N	-3.14
CCN(CC)c1ccc(NC(=O)c2ccccc2OC)cc1	38
Cc1cc(/C=C2\C(=N)N3N=C(N4CCCC4)SC3=NC2=O)c(C)n1-c1ccc(F)cc1	4.88
C=CCc1ccccc1OCC(O)CN1CCN(C(=O)OCC)CC1 (centres unmarked)	7.75
Cc1ccc(OCC(=O)Nc2nc(-c3ccc(F)cc3F)cs2)cc1	2.44
O=c1oc2ccc([N+](=O)[O-])cc2c2nsnc12	3.01

Compound	% Inhibition @ 10 uM [%]
CCNC(=O)c1ccc(CSc2nc3ccncc3n2Cc2ccc(C)cc2)cc1	7.2
C=CCNC(=O)C(=O)NC1CCCCC1	-0.446
COc1cccc2c1cc1c(=O)n(CC(=O)N3CCN(C4CCCCC4)CC3)nc(C)n12	4.84
Cc1nc2nc(C)c(CCC(=O)N3CCC(Cc4ccccc4)CC3)c(C)n2n1	-4.1
N#C/C(=C/c1ccc(Cl)cc1)C(=O)Nc1ccc(Cl)cc1	-2.2
CCOc1ccc(NC(=O)CN(c2ccc(C)cc2C)S(C)(=O)=O)cc1	-3.78
CSc1nc2ccc(NC(=O)c3ccccc3F)cc2s1	-4.6
CC(Nc1nc2nonc2nc1NC(C)c1ccccc1)c1ccccc1 (centres unmarked)	14.4
CC(C)CN(CCCNC(=O)Cn1nc(-c2ccc(Cl)cc2)ccc1=O)CC(C)C	-3.58
CC(CN1CCCCCC1)C(=O)c1ccccc1 (centres unmarked)	0.565
COc1ccc(-c2nc(C=C3C(=O)c4ccccc4C3=O)c3ccccn23)cc1	-5.2
CCOc1ccc(/C=C(/C#N)c2nc(-c3ccc(Br)cc3)cs2)o1	-2.03
CCOc1ccccc1-c1cc(C(=O)Nc2ccc(NC(C)=O)cc2)c2ccccc2n1	1.34
O=C(CSc1nc2ccccc2n2cnnc12)NCCc1ccccc1	-1.68
CCOc1ccc2ncc(S(=O)(=O)c3ccc(Cl)cc3)c(N3CCN(CC)CC3)c2c1	-0.563
CCC(=O)N1C(C(=O)NCCCN(CC)CC)CSC12CCN(C)CC2 (centres unmarked)	5.78
COc1cccc(C2CC(c3ccc(Cl)cc3OC(F)F)Nc3ncnn32)c1OC (centres unmarked)	0.219
CC1C/C(=C\c2ccc3nccnc3c2)C(=O)/C(=C/c2ccc3nccnc3c2)C1 (centres unmarked)	20.9
CCO/C(O)=C1\C(C)=NC2=C(C(=O)CCC2)C1c1cccc(O)c1 (centres unmarked)	1.26
CCN(CC)CCNCc1c(C(=O)O)n(Cc2ccccc2Cl)c2ccccc12	5.09
